Among all 310,000 compounds or so, about 14,000 (4.5%) showed an effect of 50% or more. Effects have a minus sign here. Some of the results follow.
Biological target: human ether-à-go-go-related gene (hERG) potassium channel (human, UniProt Q12809)
Experiment: primary screen, population patch clamp on CHO cells stably expressing hERG
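Also: peak tail current of the secondary pulse compared with the same well before compound.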

Sequence of human ether-à-go-go-related gene (hERG) potassium channel (Q12809 whole entry, looked up): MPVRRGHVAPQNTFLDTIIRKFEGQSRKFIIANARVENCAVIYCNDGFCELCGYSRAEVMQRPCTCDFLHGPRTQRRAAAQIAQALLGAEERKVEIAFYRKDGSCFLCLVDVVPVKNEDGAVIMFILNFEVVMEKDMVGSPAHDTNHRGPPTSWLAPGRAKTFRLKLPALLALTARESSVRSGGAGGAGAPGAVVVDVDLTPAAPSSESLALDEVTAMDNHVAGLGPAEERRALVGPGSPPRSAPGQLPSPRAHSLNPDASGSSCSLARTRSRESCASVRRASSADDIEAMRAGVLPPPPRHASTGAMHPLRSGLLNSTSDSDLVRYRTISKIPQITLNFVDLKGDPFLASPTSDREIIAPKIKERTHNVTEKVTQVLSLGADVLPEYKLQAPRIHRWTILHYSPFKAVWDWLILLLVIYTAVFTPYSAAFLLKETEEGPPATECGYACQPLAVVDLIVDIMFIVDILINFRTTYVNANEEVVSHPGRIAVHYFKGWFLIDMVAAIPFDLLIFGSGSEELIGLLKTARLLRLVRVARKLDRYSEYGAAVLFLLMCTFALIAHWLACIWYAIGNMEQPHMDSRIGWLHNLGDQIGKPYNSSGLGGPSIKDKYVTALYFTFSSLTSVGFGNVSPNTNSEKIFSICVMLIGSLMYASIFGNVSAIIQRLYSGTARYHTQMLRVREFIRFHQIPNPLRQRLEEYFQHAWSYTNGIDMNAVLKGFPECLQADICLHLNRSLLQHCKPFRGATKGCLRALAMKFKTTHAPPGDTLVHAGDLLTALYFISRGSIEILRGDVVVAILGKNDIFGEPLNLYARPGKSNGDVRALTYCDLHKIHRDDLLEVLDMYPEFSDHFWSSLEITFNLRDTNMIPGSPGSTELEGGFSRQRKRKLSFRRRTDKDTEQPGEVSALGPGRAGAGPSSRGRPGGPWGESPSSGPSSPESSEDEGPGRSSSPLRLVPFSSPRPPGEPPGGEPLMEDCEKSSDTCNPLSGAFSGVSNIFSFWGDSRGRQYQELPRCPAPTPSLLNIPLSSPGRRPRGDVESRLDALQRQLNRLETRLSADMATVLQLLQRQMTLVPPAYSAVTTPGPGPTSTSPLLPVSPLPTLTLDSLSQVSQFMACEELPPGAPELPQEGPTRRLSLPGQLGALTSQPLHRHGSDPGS

SMILES | hERG current change (%, negative = inhibition) at 10uM [%]
Cc1cc(C(F)(F)F)nn1CC(=O)Nc1ccc2c(c1)OCO2 | -2.91
COc1ccc(CCn2nnnc2C(c2ccc(C)cc2)N2CCN(C)CC2)cc1OC.Cl (stereo not drawn) | -15.4
O=[N+]([O-])c1nn(-c2ccc(Cl)cc2)n(O)c1=NCc1ccncc1 | -39.8
CC(=O)c1c(C)[nH]c(C(=O)Nc2cccc(S(=O)(=O)N(C)C)c2)c1C | 8.5
Cc1cc(C)c(-n2nnnc2SCC(=O)c2cc3ccccc3o2)c(C)c1 | 11.4
O=c1ccc(-c2ccccc2)nn1Cc1ccccc1F | 0.202
COc1ccc(-n2c(CNc3ccc(C)cc3)nnc2SCc2ccccc2)cc1 | -7.09
COc1ccc(CNC(=O)CN(Cc2ccccc2)C(=O)CCC(=O)Nc2ccccn2)cc1 | -55.9
O=C(/C=C/c1ccccc1)NC(=S)Nc1cccnc1 | 9.58
CCC(C)[C@H](NC(=O)[C@H](Cc1ccccc1)n1c(=O)[nH]c2ccccc2c1=O)C(=O)N1CCC(C(=O)O)CC1 (stereo partly drawn) | -7.09
CCCCn1c(SC(C)C(=O)c2ccc(OC)cc2)nc2cc(S(N)(=O)=O)ccc21 (stereo not drawn) | -18.1
CN1Cc2c(N3CCOCC3)nc3sc(C(=O)c4ccc(Br)cc4)c(N)c3c2CC1(C)C | 0.508
O=C(N/N=C/c1ccccn1)C(O)c1ccccc1 (stereo not drawn) | 9.82
COc1ccc(C(=O)COc2nc(C)cc(C)c2C#N)cc1 | -18.7
Cc1ccc(Sc2ccc(NC(=O)CCl)cc2)c(C)c1 | 12.5
O=C(COc1c(Br)cc(Br)c2cccnc12)N1CCc2ccccc2C1 | 8.07
O=C(N1CCN(c2ccccc2)CC1)C1(c2cccs2)CCOCC1 | 13.6
COc1ccc(NS(=O)(=O)c2cccc(Cl)c2Cl)cc1S(=O)(=O)N1CCCCC1 | -28.3
Cc1cccc(C)c1NC(=O)CNC(=O)CN1C(=O)NC2(CCc3ccccc32)C1=O (stereo not drawn) | 1.69
CCN(CC)S(=O)(=O)c1ccc(C(=O)/C=C/c2ccc(-c3ccc([N+](=O)[O-])cc3)o2)cc1 | -7.72
Cc1scc(C(=O)N/N=C/c2ccco2)c1C | 2.52
O=C(NNS(=O)(=O)c1ccccc1)c1ccc(S(=O)(=O)N2CCCCC2)cc1 | -19.3
Cc1ccccc1-n1ncc2c(SCC(=O)NCc3cccs3)ncnc21 | 8.79
CCOc1ccc(-c2c(C(=O)N/N=C/c3ccco3)nnn2-c2nonc2N)cc1 | 14.9
COc1ccc(OC)c(NC(=O)CN2C(=O)COc3ccc(C)cc32)c1 | 4.02
CCOC(=O)C1CCCCN1Cc1cccc(F)c1 (stereo not drawn) | 7.98
C=CCc1ccc(OCCOCCNCCOC)c(OC)c1 | -22.9

SMILES | hERG current change (%, negative = inhibition) at 10uM [%]
N#Cc1nc(-c2ccc([N+](=O)[O-])cc2)oc1N1CCCCC1 | 14.5
NC(=O)c1ccccc1NC(=O)c1ccc2c(c1)OCO2 | 5.14
O=C(Cn1nc(C(F)(F)F)c2c1CCC2)NCc1ccc(F)cc1 | 6.92
CC(=O)Nc1ccc(SCC(=O)NCCc2ccc(F)cc2)cc1 | 0.827
COc1ccc(-c2csc(N(CC(C)C)C(=O)c3ccco3)n2)cc1 | 23.5
Cc1cc(C)n2c(SCc3nnc(-c4cccs4)o3)nnc2n1 | 9.28
CC(C)(C)NC(=O)NC(=O)CSc1ncn[nH]1 | 19.4
Cc1nc(NC(=O)c2ccc([N+](=O)[O-])cc2Cl)sc1C(=O)N(C)C | 3.87
O=C(N/C(=C\c1ccccc1)C(=O)N1CCOCC1)c1ccc(Br)o1 | 3.18
C/C=C\C(=O)Nc1cccc(C2=NOC3(C2)C[C@H](C(N)=O)N(C(=O)Cc2ccc([N+](=O)[O-])cc2)C3)c1 (stereo partly drawn) | -6.5
Clc1ccc(Cn2ncc3c(NCc4ccccc4)ncnc32)c(Cl)c1 | 25.3
COCCN(C(=O)COC(=O)/C(=C/c1ccccc1)NC(C)=O)c1c(N)n(Cc2ccccc2)c(=O)[nH]c1=O | 9.15
CC1(C)CC(=O)c2cnc(N3CCN(c4ccccc4)CC3)nc2C1 | 2.77
CCOc1ccc(-c2cc(CCCC(=O)NCCc3ccc(OC)c(OC)c3OC)no2)cc1 | 4.4
O=C(COC(=O)c1cc(-c2ccco2)nc2ccccc12)NCc1ccc2c(c1)OCO2 | 8.16
CCc1ccccc1NS(=O)(=O)c1ccc2[nH]cc(C(=O)NC3CCCC3)c(=O)c2c1 | -8.7
Cn1nc(-c2ccc(Cl)cc2)cc1NC(=O)CCCC(=O)O | 12
O=C(NCc1ccc2c(c1)OCO2)C1CC(c2ccccc2O)=NO1 (stereo not drawn) | 3.93
Cc1ccc(-c2nnn(CC(=O)Nc3ccc4nn(-c5ccccc5)nc4c3)n2)o1 | 0.982
O=C(Cn1nnc(-c2cccs2)n1)NNC(=O)c1ccccc1Cl | -2.69
COc1ccc(NC(=O)c2[nH]c(C)c(C(C)=O)c2C)cc1 | 29
CCCN(C(=O)CSCc1c(C)noc1C)c1c(N)n(Cc2ccccc2)c(=O)[nH]c1=O | 7.94
COc1cccc(/C=C2/SC(=S)N(CC(=O)NNC(=O)c3ccccc3OC)C2=O)c1 | -0.389
COC(=O)N/N=C/c1ccccc1 | 13.5
Cc1ccc(OCC(=O)Nc2nnc(-c3ccco3)s2)cc1 | 4.41
Cc1ccc(Cn2ccc(=O)c(Cc3c(Cl)cccc3Cl)c2C)cc1 | -20.2
COc1ccc(NC(=S)NCCc2ccc(Cl)cc2)c(OC)c1 | -17.1

Source: publication PMC4336329 (PLoS ONE, 2015)
